From PubChem BioAssay AID686979 (National Center for Advancing Translational Sciences (NCATS), 2013)
Among all 420,000 compounds or so, about 50,000 (12%) were called active. This list was built around the results that the source calls inconclusive (neither active nor inactive); the mix of calls is not that of the screen. Calls follow the shape of the dose curve; as a rule, active = well fitted inhibition curve with a large enough effect; inconclusive = small, poorly fitted or top-dose-only effect; inactive = flat fitted curve, though single readings scatter. No potency is given beside an inconclusive call; the fits are too rough.

Experiment: qHTS for Inhibitors of human tyrosyl-DNA phosphodiesterase 1 (TDP1): qHTS in cells in presence of CPT; also: nearly all actives have a fitted effect of over 55% in size
Details: chicken DT40 Tdp1-/-;hTDP1 cells + 20 nM CPT, ATP luminescence, 48 h; activity change, negative = growth inhibition: at 46.2 µM (top of the series) unless noted
In short: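 Cell growth measured by CellTiter-Glo luminescence after a minimum 48 h, 37 C compound exposure with 20 nM CPT in Tdp1-knockout DT40 cells stably expressing hTDP1, seeded 400/well; qHTS titration format.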
% is scaled to controls: 0 for no effect and ±100 for the full control effect; potency is read from the fitted curve at half-maximal effect; tags tell the direction and shape of the fitted curve.

SMILES	Potency	activity change, negative = growth inhibition
Fc1ccccc1-c1cc2ncccc2cn1	inconclusive [inhibitor, single point]	
O=C(Nc1ccc(S(=O)(=O)N2CCOCC2)cc1)c1cccnc1		inactive: -0.979%
Cc1ccc(Nc2ncnc3c2cnn3C)cc1		inactive: -29%
CCN(CC)S(=O)(=O)c1cc(NC(=O)C(C)N2CCN(Cc3ccc4c(c3)OCO4)CC2)ccc1C (configuration not stated)	active: 7.31 µM	
Cc1occc1C(=O)Nc1ccc(Br)cc1F		inactive: -3.74%
CCN1C(=O)[C@H]2[C@@H](c3ccc(-c4ccc(C(C)=O)cc4)cc3)N[C@@](C)(C(=O)OC)[C@H]2C1=O	inconclusive [inhibitor, single point]	
CCCC(OC(=O)CN1C(=O)COc2ccccc21)C(=O)NC1CCCC1 (configuration not stated)		inactive: 0.244%
CC(C)COCc1ccc(O)c2ncccc12	active: 0.92 µM	
Cc1nc(C(=O)Nc2ccc(Cl)cc2Cl)nn1-c1cc(OC(C)C)c(Cl)cc1Cl	inconclusive [inhibitor, single point]	
O=C(NCCC1=CCCCC1)c1ccc(=O)oc1		inconclusive: -31.8% [inhibitor]
CCCn1c(NC(=O)c2ccc(C)cc2)nc2ccccc21	inconclusive [inhibitor, single point]	
CCOc1ccccc1CNC(=O)c1oc2ccc3c(c2c1C)C(=O)CC(C)(C)O3	inconclusive [inhibitor, single point]	
COc1cccc(NC(=O)CN(C)C(=O)c2ccc(-c3ccc(Cl)cc3)o2)c1		inconclusive: -32.3% [inhibitor]
O=c1c2sc3ccccc3c2n(Cc2ccc(F)cc2Cl)c(=O)n1Cc1ccccc1	inconclusive [inhibitor, partial curve]	
COc1ccc(NC(=O)c2cccc3c(-c4ccc(OC)cc4C)coc23)cc1	inconclusive [inhibitor, single point]	
COc1ccc(/C=C2\CC/C(=C\c3ccc(OC)cc3OC)C2=O)c(OC)c1	inconclusive [inhibitor, single point]	
COc1ccc(CCNC(=O)c2ccc(N(C)S(=O)(=O)c3ccc(C)cc3)cc2)cc1	inconclusive [inhibitor, single point]	
CN(C(=O)CSc1nc2ccccc2n1Cc1ccccc1C#N)c1ccccc1	active: 14.6 µM	
Cc1cccc(C(=O)OCC(=O)c2c(N)n(CC(C)C)c(=O)n(C)c2=O)c1O	active: 23.1 µM	
CCN(CC)S(=O)(=O)c1ccc(N2CCCCS2(=O)=O)cc1		inactive: -15.1%
CCn1cc(S(=O)(=O)c2ccc(Cl)cc2)c(=O)c2cc(F)c(N3CCOCC3)cc21	active: 25.9 µM	
Cc1cc(=O)oc2cc(OCC(=O)Nc3c(Cl)cccc3C(F)(F)F)ccc12	inconclusive [inhibitor, single point]	
COc1ccc(S(=O)(=O)N[C@@H](C)C(=O)OCC(=O)Nc2cc3oc4ccccc4c3cc2OC)cc1	inconclusive [inhibitor, single point]	
COc1cc(OC)cc(C(=O)NNC(=S)NC(=O)c2cccnc2)c1	inconclusive [inhibitor, single point]	

SMILES	Potency	activity change, negative = growth inhibition
c1ccc(-c2csc(Nc3ccc4c(c3)OCCO4)n2)cc1	active: 14.6 µM	
CCOc1ccc(S(=O)(=O)N(CC(=O)Nc2ccc3c(c2)OCO3)c2ccc(C)cc2)cc1	inconclusive [inhibitor, single point]	
O=C(CCc1nc2ccccc2c(=O)[nH]1)Nc1cccc(S(=O)(=O)N2CCCCC2)c1	inconclusive [inhibitor, partial curve, poor fit]	
COCC(=O)Nc1c(C(=O)Nc2ccc(C)cc2)oc2ccccc12		inactive: 6.84%
COC(=O)c1ccc2nc(C)cc(Nc3cccc(Cl)c3C)c2c1	active: 11.6 µM	
CCOc1ccc(OCC)c(NC(=O)C2CCN(S(=O)(=O)c3cccc4nonc34)CC2)c1	inconclusive [inhibitor, single point]	
CSc1ccc(/C=C/C(=O)c2ccc(NC(=O)C(C)C)cc2)cc1	inconclusive [inhibitor, single point]	
Cc1ccc(NS(=O)(=O)c2cccc(C(=O)NCC(c3ccc(F)cc3)N3CCOCC3)c2)cc1 (configuration not stated)	active: 29.1 µM	
Cc1cccc(OCC(=O)N(Cc2nnc(-c3ccccc3Cl)o2)C2CC2)c1	active: 16.4 µM	
Cc1ccc(Cc2c(-c3cccc(Cl)c3)nc3ccc(C)cn23)cc1	inconclusive [inhibitor, single point]	
COC(=O)c1ccc2nc(-c3ccco3)c(Cc3ccc(OC)cc3C)n2c1	inconclusive [inhibitor, single point]	
CCc1nc2c(OCc3ccc(C(=O)OC)cc3)cccn2c1N(C)C(=O)c1ccc(OC)cc1	inconclusive [inhibitor, single point]	
Cc1ccnc(NC(=O)c2cccc(OC(F)F)c2)n1		inactive: -14.6%
CC(C)(C)C(=O)Nc1cccc(-c2nnc(-c3cccc(NC(=O)C(C)(C)C)c3)o2)c1	inconclusive [inhibitor, single point]	
Cc1ccc(C(C)C)c(OCC(=O)NNC(=O)Cn2[nH]c(=O)c3ccccc3c2=O)c1		inactive: -25.2%
O=C(OCc1ccccc1)/C(=C/c1cccc2ccccc12)NC(=O)c1ccccc1		inactive: 6.83%
CCn1c(/C=C/c2ccccc2F)nc2ccccc2c1=O	inconclusive [inhibitor, single point]	
COc1ccccc1NC(=O)C1CCCN(S(=O)(=O)c2ccc3[nH]c(=O)ccc3c2)C1 (configuration not stated)	active: 20.6 µM	
CCOC(=O)C1(Cc2cccc(OC)c2)CCN(Cc2csc(C(C)=O)c2)CC1	inconclusive [inhibitor, single point]	
CC(C)(C)c1ccc(C(=O)NCC(=O)N2CCCCCC2)cc1	inconclusive [inhibitor, single point]	
O=C1C(=O)N(CCN2CCOCC2)C(c2cccc(Cl)c2)/C1=C(\O)c1ccc2c(c1)OCCO2 (configuration not stated)		inactive: -24.5%
CCOC(=O)c1ccc(-c2ccc(/C=C(\C#N)C(=O)Nc3ccc(C)cc3)o2)cc1	active: 9.2 µM	
Cc1ccc(S(=O)(=O)c2c(C)nn(C(C)(C)C)c2OC(=O)C(C)(C)C)cc1	inconclusive [inhibitor, single point]	
NS(=O)(=O)c1ccc(CCNC(=O)c2ccc(OCC3CCCO3)cc2)cc1 (configuration not stated)		inactive: -0.0866%

SMILES	Potency	activity change, negative = growth inhibition
COc1ccc(CCNC(=O)COC(=O)c2cnc(Cl)c(Cl)c2)cc1		inactive: -10.5%
Cc1c(Br)ccc(NC(=O)c2ccccc2[N+](=O)[O-])c1C	inconclusive [inhibitor, single point]	
O=C(O)CNS(=O)(=O)c1ccc2c(c1)Cc1cc(S(=O)(=O)NCC(=O)O)ccc1-2		inactive: 1.18%
Cc1cnn(CCC(=O)NNC(=S)Nc2ccccc2)c1	active: 11.2 µM	
Cc1ccc(C(=O)O)cc1NC(=O)C1CCN(S(=O)(=O)c2ccc3c(c2)OCCO3)CC1		inactive: -0.592%
COc1cc(OC)c2c(-c3cccc(-c4ccc(OC(F)(F)F)cc4)c3)cc(=O)oc2c1	inconclusive [inhibitor, single point]	
COC(=O)c1ccc2c(=O)n(CCCCCC(=O)N3CCN(c4ccc(Cl)cc4)CC3)c(=O)[nH]c2c1	inconclusive [inhibitor, single point]	
CCN(C1CCCCC1)S(=O)(=O)c1ccc(S(=O)(=O)NCCc2ccncc2)cc1	inconclusive [inhibitor, single point]	
Cc1ccc(CCNC(=O)CCn2nc(-c3ccc(C)cc3)ccc2=O)cc1	active: 23.1 µM	
C=CCS/C(=N\n1cnc2ccccc2c1=O)N(CC)CC	inconclusive [inhibitor, single point]	
COc1ccc(C=C(C(=O)c2ccccc2)C(=O)c2ccccc2)cc1	inconclusive [inhibitor, single point]	
CCOC(=O)c1ccc(NC(=O)c2cc3c(s2)CCC3)cc1		inactive: 7.75%
CCN(CC)c1ccc(/C=C/C(=O)c2cccnc2)cc1	inconclusive [inhibitor, single point]	
C=CCn1c(C)cc(C(=O)COC(=O)C2CC(=O)N(CCc3ccc(OC)c(OC)c3)C2)c1C (configuration not stated)		inactive: -21%
COc1ccc(C2NC(=O)NC(C)=C2[N+](=O)[O-])cc1 (configuration not stated)		inactive: 0.857%
Clc1ccccc1Cn1nnc(-c2ccccc2)n1		inactive: 17.2%
COc1cccc(C(=O)N2CCC(n3nccc3NC(=O)CCOc3ccccc3)CC2)c1		inactive: -28.2%
C=CCNc1ncnc2c1[nH]c1ccc(C)cc12	active: 29.1 µM	
COC(=O)c1ccc(CNC(=O)c2ccc(S(=O)(=O)N(C)c3ccccc3OC)cc2)cc1	inconclusive [inhibitor, single point]	
O=C(COC(=O)c1ncc(Cl)c(Cl)c1Cl)NC1CCCCCC1		inactive: 1.03%
Cc1cc(C(=O)OCC(=O)NCCCN2CCCC2=O)c2ccccc2n1		inactive: -1.38%
COc1cc2oc3ccc(C#Cc4ccccn4)cc3c(=O)c2cc1OC	inconclusive [inhibitor, single point]	
CC(=O)N1CCN(C(=O)COC(=O)/C=C/c2ccc(C(F)(F)F)cc2)CC1	inconclusive [inhibitor, partial curve, poor fit]	
COC(=O)c1ccc(NC(=O)CN(Cc2ccccc2)S(=O)(=O)c2ccc(Cl)cc2)cc1	inconclusive [inhibitor, single point]	
